Experimental data taken from paper PMC4336329 (PLoS ONE, 2015).
In all, about 310,000 compounds went through this assay and about 2,200 (0.71%) showed an effect of 50% or more. Effects have a minus sign here. The list shows a part of the results.

What follows are molecules tested against human ether-à-go-go-related gene (hERG) potassium channel (human, UniProt Q12809) (assay: primary screen, population patch clamp on CHO cells stably expressing hERG).
human ether-à-go-go-related gene (hERG) potassium channel, sequence (Q12809 whole entry, looked up): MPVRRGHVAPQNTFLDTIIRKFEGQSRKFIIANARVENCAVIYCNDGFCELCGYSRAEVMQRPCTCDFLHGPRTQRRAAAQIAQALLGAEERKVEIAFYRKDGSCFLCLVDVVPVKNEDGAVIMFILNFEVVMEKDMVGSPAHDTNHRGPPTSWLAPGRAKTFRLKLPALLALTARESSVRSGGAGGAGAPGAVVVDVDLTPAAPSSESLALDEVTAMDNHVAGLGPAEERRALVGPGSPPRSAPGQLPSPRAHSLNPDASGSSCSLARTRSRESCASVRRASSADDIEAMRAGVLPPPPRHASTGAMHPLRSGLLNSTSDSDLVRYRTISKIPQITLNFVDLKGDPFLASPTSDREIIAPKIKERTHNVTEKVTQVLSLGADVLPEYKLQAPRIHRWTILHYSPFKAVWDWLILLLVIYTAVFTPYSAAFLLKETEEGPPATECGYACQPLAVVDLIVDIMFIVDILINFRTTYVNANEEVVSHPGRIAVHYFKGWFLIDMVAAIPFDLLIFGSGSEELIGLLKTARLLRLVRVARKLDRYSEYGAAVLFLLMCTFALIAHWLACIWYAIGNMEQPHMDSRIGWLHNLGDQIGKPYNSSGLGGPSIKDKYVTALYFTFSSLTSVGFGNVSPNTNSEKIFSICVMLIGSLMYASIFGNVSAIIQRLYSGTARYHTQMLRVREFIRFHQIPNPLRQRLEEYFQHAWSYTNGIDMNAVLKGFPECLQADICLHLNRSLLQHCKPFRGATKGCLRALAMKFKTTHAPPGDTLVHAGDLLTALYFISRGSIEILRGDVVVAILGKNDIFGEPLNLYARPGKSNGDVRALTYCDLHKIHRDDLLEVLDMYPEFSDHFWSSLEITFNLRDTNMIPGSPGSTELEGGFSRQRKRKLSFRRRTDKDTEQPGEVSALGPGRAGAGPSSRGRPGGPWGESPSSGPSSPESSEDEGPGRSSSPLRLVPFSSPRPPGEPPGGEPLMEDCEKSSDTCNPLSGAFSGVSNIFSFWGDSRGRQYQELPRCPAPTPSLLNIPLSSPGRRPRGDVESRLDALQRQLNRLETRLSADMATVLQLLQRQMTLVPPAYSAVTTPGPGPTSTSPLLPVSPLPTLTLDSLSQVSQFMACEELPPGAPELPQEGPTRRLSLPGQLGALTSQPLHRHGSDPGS

SMILES | hERG current change (%, negative = inhibition) at 1uM
CCN(CC)C(=O)CSc1nnc(-c2ccc(S(=O)(=O)N3CCOCC3)cc2)n1C | 13.8%
O=C(NC(=S)N1CCCc2ccccc21)c1ccc(Cl)cc1 | 5.9%
N#CC(C(=O)Nc1ccccc1)=C1CCCCC1 | 14.4%
N[C@@H](Cc1ccc(O)cc1)C(=O)Nc1ccc2ccccc2c1 | 5.28%
Cc1ccc(/C=N/NC(=O)c2cccc([N+](=O)[O-])c2)o1 | 2.3%
CCN(C(=O)COC(=O)CCc1ccccc1)c1ccccc1 | 13.6%
Cc1ccccc1N1CCN(S(=O)(=O)N(C)C)CC1 | 3.07%
CC1CCCCN1C(=O)c1ccc(Br)o1 (stereo not drawn) | 8.55%
COc1ccc(/C=C(\NC(=O)c2ccc(OC)cc2)C(=O)N2CCCCC2)cc1 | 7.74%
O=C(CSc1nnc2ccc(-c3ccncc3)nn12)Nc1ccc(F)cc1 | -2.46%
CC1CC(C)CN(C(=O)COc2ccc([N+](=O)[O-])cc2Cl)C1 (stereo not drawn) | 15.9%
COCCN(CC(=O)Nc1cccc(C)c1C)C(=O)c1oc2c(Cl)cccc2c1C | -4.32%
COc1ccccc1N(CC(O)CN(c1ccccc1)S(C)(=O)=O)S(=O)(=O)c1ccccc1 (stereo not drawn) | 10.3%
N#CCCN(C(=O)COC(=O)c1ccc(S(=O)(=O)Nc2ccccc2)cc1)c1ccccc1 | 5.89%
CC(C)CN1C(=O)CC(Sc2ccccc2C(=O)O)C1=O (stereo not drawn) | 4.67%
COc1ccc(C2(CNC(=O)Cc3ccccc3)CCCC2)cc1OC | 12.7%
O=C(CCN1C(=O)c2ccccc2S1(=O)=O)N1CCN(c2ccccc2F)CC1 | 8.49%
C/C(=N/NC(=O)CSc1nc2ccccc2n1C)c1ccc(O)cc1 | 15.3%
COc1ccc(C(=O)N2CC3(CC(c4cccc(NC(=O)COc5ccc(Cl)cc5)c4)=NO3)C[C@@H]2C(N)=O)cc1 (stereo partly drawn) | 3.45%
Cc1cc(NC(=O)CCC(=O)N(c2ccccc2)C(C(=O)NC2CCCC2)c2ccncc2)no1 (stereo not drawn) | 9.34%
Cc1cc(C)nc(NN=C(c2ccccc2)c2ccccc2)n1 | -0.703%
CCCCCn1c(N(C)Cc2ccccc2)nc2c1c(=O)[nH]c(=O)n2C | -2.2%
Cc1ccccc1C(=O)Oc1cc(N)n(S(=O)(=O)c2ccccc2)n1 | 2.35%
CCOc1ccc(S(=O)(=O)N2CCN(C(=O)c3cc([N+](=O)[O-])ccc3N3CCOCC3)CC2)cc1 | -3.26%
